Sequences with one replicate were seen in a single cluster, so their values are uncertain.

This data set relates to ATP. The experiment in a line: switch fluorescence ratio, 500 uM ATP over buffer (Cy3 cluster intensity, sum of 5 cycles each) (fold (ratio)); higher = stronger signal-on switching upon ATP binding; sequences stand for … in TCGTCGGCAGCGTCAGATGTGTATAAGAGACAGTTTTTTTTTTTTTTTTTTTTTTTTT…TC. The note with it: aptamer strand: ATP DNA aptamer (quencher-CACCTGGGGGAGTATTGCGGAGGAAGG + anchor), 100 nM annealed; ATP concentration: 500 uM; one replicate. In a few lines: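 After annealing to 100 nM quencher-labelled ATP aptamer, Cy3-labelled switching-strand clusters on a modified Illumina MiSeq flow-cell were imaged in selection buffer. A second image followed after 15 min with 500 uM ATP at 22 °C, and five such buffer/ATP cycles were done, each separated by NaOH stripping and re-annealing. The fluorescence ratio, averaged per switch-domain sequence, is summed target-cycle over summed buffer-cycle Cy3 intensity per cluster, with clusters outside 100-1000 RFU excluded.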
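Also: ATP exposure 15 min at 22 °C before imaging.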

Regarding ACCGCGAAGA, the switch fluorescence ratio was found to be 1.37.
Next, GGATTGCAAC: 1.01; TACGTCCACC: 1.47.
Next, ACGACCGGGG: 1.18; ACGGCAACAG: 1.54; ATACATCAAA: 0.989.
The value for CAACATCAGC was 1.01; that for GTTGGACCTA was 1.01; that for CGCCGGACAG was 1.01.
For CGGATTACCA, the switch fluorescence ratio came to 0.978.
Next, CCAATACGAT: 2.64; CGAGGCTGAG: 1.01; AGTGTGTGCA: 1.02.
The value for CGTGGCTTGT was 1.04.
Next, GCAATTTTGG: 1.01; CATTGGCCAA: 0.99.
Take CCTGGCGAGG: the switch fluorescence ratio came out at 1.03.
Consider TGCTCGCTTT, for which the switch fluorescence ratio turned out to be 1.03.
Next, GTGTCGAT: 1; AGGGAGCCTT: 0.993.
The value for TTTGTAAGG was 1; that for AGGAAGTTTC was 0.991; that for AAGATAGGCT was 1.02.
The value for TAGTGATGCA was 0.902.
As to TCAGGCGGT, the switch fluorescence ratio was determined as 0.934.
The value for AATATGACAG was 1.01; that for CTCAATCTCG was 1.34; that for TTGGACTCCC was 1.45.
Next, GACATCGAAC: 1.13; AGCGTCTGAT: 0.972; AGCGTCGTAG: 1.01.
In the case of TATTGACTTG, the switch fluorescence ratio turned out to be 1.05.
Next, TCTCGGTAGC: 0.974.
As for CAGCTTCGAA, the switch fluorescence ratio worked out at 0.989.
AAGGGTTAGT: the switch fluorescence ratio was 0.988.
The value for TTTTACCTTA was 1.06; that for GCTGCTGAGC was 1.01.
Next, GGGCACTTTT: 0.983; TTATAGGGCT: 1.04; GCTCGGGGCG: 1.03.
On to AATAGCAGCG, for which the switch fluorescence ratio came out at 1.04.
Next, ACTTGCTTGA: 0.977.
The value for GACTATCCGG was 0.981; that for ATAAGGTGC was 1.26.
Next, CCATATTGAT: 1.03; ACCAGTTAGT: 1.02.
ATTGCACA: the switch fluorescence ratio was found to be 1.01.
The value for GAAGGCAGGA was 0.964; that for GGTGCTGATT was 0.972.
Next, TAGCAAACTA: 1.29; AACATGACTC: 1.29; AGTCATTTTT: 1.
The value for TAGGCTTAAA was 1.01; that for CGAAGAATGG was 1.02; that for AGAAGCAGAG was 1.05.
As to AGGGATCCTG, the switch fluorescence ratio turned out to be 0.983.
Turning to ATGGTCTTAA, the switch fluorescence ratio is 0.997.
CTCTAAAGCG: the switch fluorescence ratio came to 0.979.
The value for CGATAGTTTA was 0.996.
The value for GGAAAGTAGT was 0.98; that for GCAGCAGTCG was 1.23; that for GAGTTTAGCC was 0.961.
The value for GGTCTATATG was 0.984; that for AACACTACCA was 1.26.
For AAACACGCGA, the switch fluorescence ratio turned out to be 1.24.
The value for ACGATTTGGA was 1.03.
With AAATCGGTGC, the switch fluorescence ratio is 0.97.
The value for ATCGCTGCAT was 1.08; that for GATGATCTGT was 0.987.
With GTGGGACTTG, the switch fluorescence ratio worked out at 0.985.
Next, TTCCAACCA: 1.03.
The value for TATTTCTGG was 0.937.
Next, GGGGTCGACT: 1.08; AGGGGTAACA: 1.05; CGGGAGAAC: 0.982.
For the sequence ACAGATTACT, the switch fluorescence ratio amounted to 1.14.
Next, GAACAAGTTG: 0.993.
Turning to TAAGTCGTCA, the switch fluorescence ratio was 1.01.
Next, TGTATTTTG: 0.996; CGGGGCGGAA: 1.16; GCATCTCTAG: 1.01.
Next, GGCAGAGACA: 1.01.
The value for TCATAATTAT was 1.01; that for TATTGCATAG was 0.956.
Turning to TTAAATTGGA, the switch fluorescence ratio was found to be 0.993.
The value for AAGTACGTCG was 0.984; that for CGCTCGGTTG was 1.02; that for CTGGTAACTA was 0.986.
Next, GGGGTCCGGC: 0.994; GTTTGAAGGA: 0.956.
On to AGTCATACGG, for which the switch fluorescence ratio is 1.03.
The value for TGTGGAAACA was 0.99; that for TCCGTATGG was 1.02; that for CGATTTCTTT was 0.974.
Next, ATCGGGATTT: 0.912; CGAGGCTCTG: 1.02; GATGGACCAC: 1.04.
The value for AAGTCCGCGC was 2.58; that for TCCAACAATA was 1.31; that for GAAGGGAAAT was 0.981.
For TGCCGCGGGG, the switch fluorescence ratio worked out at 1.04.
Turning to CTGACGCGCA, the switch fluorescence ratio came out at 2.17.
As to CCGAGCTCGA, the switch fluorescence ratio stood at 1.15.
With ATGTACTCCG, the switch fluorescence ratio stood at 1.13.
As for AAACTCACTA, the switch fluorescence ratio was determined as 1.06.
The value for CTCTGATA was 1.03; that for AGCCCGTCCT was 1.04; that for GCGTTCAAAA was 1.05.
The value for CATTTGGTGG was 1.06.
Next, ACCTATTTGA: 1.02; TGATTTTTA: 0.956; CCTGAATGGT: 0.964.
For the sequence ACCGAGGCGA, the switch fluorescence ratio was 1.04.
Next, TCGGGGAAGG: 1.02; TTTGGTAAAT: 1.04.
Next, ATCGGTTCGC: 1.01; GTTCATATGG: 1.02; GTTAATTTAA: 1.01.
The value for TGATCTACTA was 0.99; that for CCCGTTAAGC was 1.35.

The values above are taken from the supplement of paper PMC10126150.
